From patent publication US6245917A, “Crystalline sodium phenytoin monohydrate” (Warner-Lambert Company, priority 1999, dated 2001) come the findings set out here.

Some values that stand alone complete this part of the results.

The nature of the data set: DSC and TGA thermal analyses. The data set is classed as physicochemical. Conditions: DSC, nitrogen, 10° C./minute. The method, then:
Differential scanning calorimetry (DSC) experiments were performed on a Dupont DSC 2000 and thermogravimetric analyses (TGA) were performed on a Dupont TGA 2000. Nitrogen was used as the purge gas and heating rates were 10° C./minute. Standards were run prior to sample analyses; Sn for DSC and calcium oxalate for TGA.
Both SPM and SPA were analyzed by x-ray powder diffraction (XRPD), infrared (IR) spectroscopy, solid-state nuclear magnetic resonance (SSNMR) spectroscopy, differential scanning calorimetry (DSC) and thermogravimetric analysis (TGA). The XRPD patterns of SPM and SPA are quite different and distinguishable. While the IR and SSNMR spectra of SPM and SPA are different, the differences are subtle. SPM and SPA behave quite differently on both DSC and TGA thermal analyses. SPA undergoes endothermic transitions at 364° C. and 409° C. that are accompanied by a weight loss of 72%.

`O=C1NC(=O)C(c2ccccc2)(c2ccccc2)N1` [SPA, sodium phenytoin anhydrate, reference compound]: the endothermic transition temperature stood at 364 °C (first endothermic transition) and 409 °C (second endothermic transition).
